Reference: PubChem BioAssay AID1745853 (National Center for Advancing Translational Sciences (NCATS), 2022)
“And” between values parts separate entries of the source, which are not always exact repeats. Identical values can stand only once. This is one part of the list. These are further read-outs of the screen, such as a control signal, another cell line or another target. No call is given for them.

Assays:
Experiment in all cases: Primary Screen for Target Class Profiling of Small Molecule Inhibitors of Methyltransferases
[1] = biological target: Glycine N-methyltransferase (Homo sapiens) (UniProt Q14749); conditions: purified enzyme, MTase-Glo SAH luminescence; measured here: GNMT inhibition; at 40 µM; stronger effect = lower value
How it was run: (§1)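 Each enzyme was assayed with SAM and its substrate. SAH formation detected by MTase-Glo luminescence; single-point 40 uM screen[…].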

[2] = biological target: Guanidinoacetate N-methyltransferase (Homo sapiens) (UniProt Q14353); conditions: purified enzyme, MTase-Glo SAH luminescence; measured here: GAMT inhibition; at 40 µM; stronger effect = lower value
How it was run: as §1

[3] = biological target: Histamine N-methyltransferase (Homo sapiens) (UniProt P50135); conditions: purified enzyme, MTase-Glo SAH luminescence; measured here: HNMT inhibition; at 40 µM; stronger effect = lower value
How it was run: as §1

[4] = biological target: Nicotinamide N-methyltransferase (Homo sapiens) (UniProt P40261); conditions: purified enzyme, MTase-Glo SAH luminescence; measured here: NNMT inhibition; at 40 µM; stronger effect = lower value
How it was run: as §1

[5] = biological target: Phenylethanolamine N-methyltransferase (Homo sapiens) (UniProt P11086); conditions: purified enzyme, MTase-Glo SAH luminescence; measured here: PNMT inhibition; at 40 µM; stronger effect = lower value
How it was run: as §1
% is scaled to controls: 0 for no effect and ±100 for the full control effect.

SMILES | activity change, negative = inhibition [1] | activity change, negative = inhibition [2] | activity change, negative = inhibition [3] | activity change, negative = inhibition [4] | activity change, negative = inhibition [5]
CCc1cc2c(cc3n2CC(C)(C(=O)NC2CCCCCC2)N(c2cc(C)ccc2C)C3=O)s1 (configuration not stated) | 4.18% | 0% | 1.21% | 9.75% | 3.26%
Cc1cc(Cl)ccc1OCCCC(=O)NO | -12% and -4.46% | 1.67% | -2.42% and 4.06% | -9.91% and 7.71% | 1.96% and 30%
CCOc1ccc(CCNC(=O)c2cc3n(n2)CC(C)(C(=O)NC2CCCC2)N(C)C3=O)cc1 (configuration not stated) | 2.09% | 1.76% | 6.13% | 4.73% | 0.633%
CN(C)S(=O)(=O)N1CCCC(c2nc(-c3ccccc3)no2)CCNC(=O)CC1 (configuration not stated) | -5.99% | -9.07% | -4.39% | -16.3% | -10.3%
CN(CCCN1C(=O)c2ccc(-c3ccco3)n2CC1(C)C(=O)NC1CCCC1)C1CCCCC1 (configuration not stated) | 3.04% | 0.456% | -2.75% | 5.14% | 3.22%
O=C(NCCN1CCOCC1)c1ccc(Cl)cc1 | -0.973% | 10.5% | 7.69% | -5.17% | 5.59%
C=CC(C)(O)CC/C=C(\C)C(=O)OC1C(O)C(CO)OC(OC(=O)C23CCC(C)(C)CC2C2=CCC4C5(C)CCC(OC6OC(COC7OCC(OC(C)=O)C(O)C7OC7OC(COC(C)=O)C(O)C(O)C7OC(C)=O)C(O)C(O)C6OC6OCC(O)C(O)C6O)C(C)(C)C5CCC4(C)C2(C)C(O)C3O)C1OC1OCC(OC2OCC(O)C(OC3OCC(O)C(O)C3O)C2O)C(O)C1O (configuration not stated) | 0% | 20.7% | 8.64% | 7.86% | 4.84%
CC1CCC(NC(=O)C2(C)Cn3c(ccc3-c3ccco3)C(=O)N2Cc2ccccn2)CC1 (configuration not stated) | -5.39% | 0% | 7.02% | 3.19% | 4.02%
CCC1c2ccc(C)n2CCN1C(=O)Nc1ccccc1F (configuration not stated) | 4.08% | 10.4% | 1.77% | -5.26% | 1.33%
CCOC(=O)N1c2ccc(C(F)(F)F)cc2C(N(Cc2cc(C(F)(F)F)cc(C(F)(F)F)c2)C(=O)OC)CC1CC (configuration not stated) | -5.16% | – | 4.12% | – | –
COc1ccc(CCN2C(=O)c3cc4occc4n3CC2(C)C(=O)NC2CCCCC2C)c(OC)c1 (configuration not stated) | 0.459% | 0% | -0.702% | -2.47% | -3.54%
COC(=O)c1cc2n(n1)CC(C)(C(=O)NC1CCCCCC1)N(c1cc(C)cc(C)c1)C2=O (configuration not stated) | -0.875% | 4.9% | -9.21% | 0.17% | -0.271%
O=C(C(Cc1ccccc1)NS(=O)(=O)c1cccc2nsnc12)N1CCN(c2ccccn2)CC1 (configuration not stated) | -0.955% | 0.068% | 5.69% | 3.07% | 1.03%
CNC(=O)Nc1ccc(OC)c(NC(=O)NC(=O)c2cc(F)c(F)cc2Cl)c1 | -4.98% | -11.4% | 4.66% | -24.4% | -7.6%
O=C(CNC(=O)c1cccc(C(F)(F)F)c1)N[C@@H]1CCN(Cc2ccc(Cl)cc2)C1 | -0.827% | 6.76% | 7.74% | -13.1% | 0.758%
